# Data reported in the RNAGym collection of RNA variant scans (doi:10.1101/gad.245936.114).
# Variants at the background level are over-represented here.
# B1: tRNA (parent)
# chain: CUCUCGGUAGCCAAGUUGGUUUAAGGCGCAAGACUUUAAUUUAUCACUACGAAAUCUUGAGAUCGGGCGUUCGACUCGCCCCCGGGAGAUUUUUUCCUCGAGCAA
# Variants of: B1
# Assay: nonsense suppression (GFP-seq) (ratio to wild type); higher = more function; SUP4oc tRNA, yeast GFP reporter sort-seq
# Procedure, shortened: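 Each variant's nonsense suppression (GFPSEQ) is a cell-share-weighted bin median GFP/RFP relative to the unmutated parent tRNA. Yeast with genome-integrated tRNA variants from a ~3% random-mutation library, a galactose-driven GFP ochre reporter and RFP were grown in raffinose/galactose medium with 80 mg/L adenine, then sorted into GFP/RFP bins for Illumina sequencing. Variants needed ≥100 reads and ≥30 cells.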
row,Variant,nonsense suppression
1,CUCUCGGUAGCCAAGUUGGUUUAAGGUGCUAGACUUUAAUUUAUCACUACGAAAUCUUGAGAUCCGGCGUUCGACUCGCCCCCGGGAGAUUUUUUCCUCGAGCAA,≤ 0.026
2,CUCUCGGUAGCCAAGUUGGUUUAAGGUGCUAGACUUUAAUUUAUCACUACGAAAUCUUGAGAUCGGGCGUUCGACUCGCCCCCGCGAGAUUUUUUCCUCGAGCAA,≤ 0.026
3,CUCUCGGUAGCCAAGUUGGUUUAAGGUGCAGGACUUUAAUUUAUCACUACGAAAUCUUGAGAUCGGGCGUUCGACUCGCCCCCGGGAGAUUUUUUCCUCGAGCAA,≤ 0.026
4,CUCUCGGUAGCCAAGUUGGUUUAAGGUGCAGGACUUUAAUUUAUCACUACGAAAUCUUGAGACCGGGCGUUCGACUCGCCCCCGGGAGAUUUUUUCCUCGAGCAA,≤ 0.026
5,CUCUCGGUAGCCAAGUUGGUUUAAGGUGCAAGCCUUUAAUUUAUCACUACGAAAUCUUGAGAUCGGGCGUUCGACUCGCCCCCGGGAGAUUUUUUCCUCGAGCAA,≤ 0.026
6,CUCUCGGUAGCCAAGUUGGUUUAAGGUGCAAGCCUUUAAUUUAUCACUACGAAAUCUUGAGAUCGGGCGUUCGACUCGCCCCCUGGAGAUUUUUUCCUCGAGCAA,≤ 0.026
7,CUCUCGGUAGCCAAGUUGGUUUAAGGUGCAAGGCUUUAAUUUAUCACUACGAAAUCUUGAGAUCGAGCGUUCGACUCGCCCUCGGGAGAUUUUUUCCUCGAGCAA,≤ 0.026
8,CUCUCGGUAGCCAAGUUGGUUUAAGGUGCAAGGCUUUAAUUUAUCACUACGAAAUCUUGAGAUCGGGCCUUCGACUCGCCCCCGGUAGAUUUUUUCCUCGAGCAA,≤ 0.026
9,CUCUCGGUAGCCAAGUUGGUUUAAGGUGCAAGUCUUUAAUUUAUCACUACGAAAUCUUGAGAUCGGGCGUUCGACUCGCCCCCGGGAGAUUUUUUCCUCGAGCAA,≤ 0.026
10,CUCUCGGUAGCCAAGUUGGUUUAAGGUGCAAGACUUUAAUUUAUCACUACGAAUUCUAGAGAUCGGGCGUUCGACUCGCCCCCGGGAGAUUUUUUCCUCGAGCAA,≤ 0.026
11,CUCUCGGUAGCCAAGUUGGUUUAAGGUGCAAGACUUUAAUUUAUCACUACGAAAUCUUGCGUUCGGGCGUUCGACUCCCCCCCGGGAGAUUUUUUCCUCGAGCAA,≤ 0.026
12,CUCUCGGUAGCCAAGUUGGUUUAAGGUGCAAGACUUUAAUUUAUCACUACGAAAUCUUGAGGUCGGGCGUUCGACUCGCCCCCGGGAGAUUUUUUCCUCGAGCAA,≤ 0.026
13,CUCUCGGUAGCCAAGUUGGUUUAAGGUGGCAGACUUUAAUUUAUCACUACGAAAUCUUGAGAUCGGGCGUUCGACUCGCCACCGGGAGUUUUUUUCCUCGAGCAA,≤ 0.026
14,CUCUCGGUAGCCAAGUUGGUUUAAGGUGUAAGACUUUAAUUUAUCACUACGAAAUCUUGAGAUCGGGCGUUCGACUCGCCCCCGGGAGAUUUUUUCCUCGAGCAA,≤ 0.026
15,CUCUCGGUAGCCAAGUUGGUUUAAGGUGUAAGACUUUAAUUUAUCACUACGAAUUCUUGAGAUCGGGCGUUCGACACGCCCCCGGGAGAUUUUUUCCUCGAGCAA,≤ 0.026
16,CUCUCGGUAGCCAAGUUGGUUUAAGGUGCAAGAAUUUAAUUUAUCACUACGAAAUCUUGCGUUCCGGCGUUCGACUCGCCCCCGGGAGAUUUUUUCCUCGAGCAA,≤ 0.026
17,CUCUCGGUAGCCAAGUUGGUUUAAGGUGCAAGAAUUUAAUUUAUCACUACGAAAUCUUGAGAUUGGGCGUUCGACUCGCCCCCGGGAGAUUUUUUCCUCGAGCAA,≤ 0.026
18,CUCUCGGUAGCCAAGUUGGUUUAAGGUGCAAGAACUUAAUUUAUCACUACGAAAUCUUGAGAUCGUGCGUUCGACUCGCCCCCGGGAGAUUUUUUCCUCGAGCAA,≤ 0.026
19,CUCUCGGUAGCCAAGUUGGUUUAAGGUGCAAGACUUUAAUUUAUCACUACGAAAUUUUGAGAUCGGGCGCUCGACUCGCCCCCGGGAGAUUUUUUCCUCGAGCAA,≤ 0.026
20,CUCUCGGUAGCCAAGUUGGUUUAAGGUGCAAGACUUUAAUUUAUCACUACGAAAUCUUGAGAUCGGGCGUUGGACUCGCCCCGGGAAGAUUUUUUCCUCGAGCAA,≤ 0.026
21,CUCUCGGUAGCCAAGUUGGUUUAAGGUGCAAGACUUUAAUUUAUCACUACGAAAUCUUGAGAUCGGGCGUUCGACUAGCCCCCGGGAGAUUUUUUCCUCGAGCAA,≤ 0.026
22,CUCUCGGUAGCCAAGUUGGUUUAAGGUGCAAGACUUUAAUUUAUCACUACGAAAUCUUGAGAUCGGGCGUUCGACUGGCCCCCGGGAGAUUUUUUCCUCGAGCAA,≤ 0.026
23,CUCUCGGUAGCCAAGUUGGUUUAAGGUGCAAGACUUUAAUUUAUCACUACGAAAUCUUGAGAUCGGGCGUUCGACUCGUCCCCGGGAGAUUUUUUCCUCGAGCAA,≤ 0.026
24,CUCUCGGUAGCCAAGUUGGUUUAAGGUGCAAGACUUUAAUUUAUCACUACGAAAUCUUGAGAUCGGGCGUUCGACUCGCUCCCGGGAGAUUUUUUCCUCGAGCAA,0.0446
25,CUCUCGGUAGCCAAGUUGGUUUAAGGUGCAAGACUUUAAUUUAUCACUACGAAAUCUUGAGAUCGGGCGUUCGACUCGCCCCAGGGAGAUUUUUUCCUCGAGCAA,≤ 0.026
26,CUCUCGGUAGCCAAGUUGGUUUAAGGUACAAGACUUUAAUUUAUCACUACGAAAUCUUGAGAUCGGGCGUUCGACUCGCCCCCGGGAGAUUUUUUCCUCGAGCAA,0.0265
27,CUCUCGGUAGCCAAGUUGGUUUAAGGUACAAGUCUUUAAUUUAUCACUACGAAAUCUUGAGAUCGGGCGUUCGACUCGCACCCGGGAGAUUUUUUCCUCGAGCAA,≤ 0.026
